Assay results taken from PubChem BioAssay AID686978 (National Center for Advancing Translational Sciences (NCATS), 2013).
Where “and” joins values, the source holds several entries; their conditions need not be identical. Equal values may be shown once. Among all 420,000 compounds or so, about 64,000 (15%) were called active. Inconclusive results, whose numbers are uncertain, are shown with a selection of clear calls. Calls come from the whole dose curve; as a rule, active = well fitted inhibition curve with a large enough effect; inconclusive = small, poorly fitted or top-dose-only effect; inactive = flat fitted curve, though single readings scatter. A potency beside an inconclusive call is a rough fit, not a confirmed value.

Assay: qHTS for Inhibitors of human tyrosyl-DNA phosphodiesterase 1 (TDP1): qHTS in cells in absence of CPT; note: nearly all actives have a fitted effect of over 55% in size
Conditions: DT40 Tdp1-/- hTDP1 cells, no CPT, ATP luminescence, 48 h; activity change, negative = growth inhibition: at 46.2 µM (top of the series) unless noted
How it was run: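 A cellular qHTS used chicken DT40 cells lacking endogenous Tdp1 but carrying stably transfected human TDP1. Compounds were applied without camptothecin, and cell growth kinetics were judged by ATP-dependent luminescence after ≥48 hr.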
% is set by controls: 0 for no effect and ±100 for the full control effect; potency is the fitted concentration of half-maximal effect; tags give direction and shape of the fitted curve.

For COc1ccc(CNc2nc(-c3cccnc3)nn2S(C)(=O)=O)cc1, which “activity change, negative = growth inhibition” value is on record?
Its value is inactive: -4.52%.

With CCc1ccc(NC(=O)CSc2cn(CC(=O)N3CCCC3)c3ccccc23)cc1 as the molecule, how does the Potency read?
The Potency was inconclusive: 16.4 µM [inhibitor, partial curve, poor fit].

With CS(=O)(=O)c1ccc(C(=O)Nc2ccc(-c3nc4ccccc4[nH]3)cc2)cc1 as the molecule, how does the activity change, negative = growth inhibition read?
Its activity change, negative = growth inhibition is inconclusive: -18.9% [inhibitor].

With CCOCCCNC(=O)NC(CCC(C)C)c1c(-n2cccc2)sc2c1CCN(C)C2 (stereo not drawn) as the molecule, how does the Potency read?
Its Potency is active: 16.4 µM.

Which “activity change, negative = growth inhibition” value does the source give for Cc1ccc(C)c(S(=O)(=O)N/N=C/c2ccc(N(C)C)cc2)c1 here?
Its value is inactive: -13.2%.

Which Potency does the source give for CCOc1ccccc1NC(=O)N1CCCC(c2nc3c(nnn3Cc3ccc(C)cc3)c(=O)[nH]2)C1 (stereo not drawn) here?
The Potency was inconclusive: 29.1 µM [inhibitor, single point].

Which “activity change, negative = growth inhibition” value does the source give for CC(C)COC(=O)/C(C#N)=C/c1cn(Cc2ccccc2)c2ccccc12 here?
Its value is inactive: -18.1%.

For COc1ccc(CNC(=O)c2ccc(Cn3c(=O)c4cccn4c4cccnc43)cc2)cc1OC, which “activity change, negative = growth inhibition” value is on record?
Its value is inactive: -16.1%.

For COc1ccc(N2CCN(C(=O)CCNS(=O)(=O)c3ccc4c(c3)CCN4C(=O)C3CC3)CC2)cc1, which Potency is on record?
The Potency was active: 18.4 µM.

With O=C(CSc1ccc(-c2ccccn2)nn1)N1CCCc2ccccc21 as the molecule, how does the Potency read?
The Potency was inconclusive: 16.4 µM [inhibitor, single point].

For COc1ccccc1-c1ccc2ncnc(NC3CC3)c2c1, which Potency is on record?
Its Potency is inconclusive: 20.6 µM [inhibitor, single point].

For COc1ccccc1CNc1nc(=S)[nH]c2cc(OC)c(OC)cc12, which Potency is on record?
Its Potency is inconclusive: 23.1 µM [inhibitor, single point].

Which “activity change, negative = growth inhibition” value does the source give for CCCS(=O)(=O)N1CCN(CC2CC=CCC2)CC1 (stereo not drawn) here?
Its value is inactive: -5.01%.

For O=c1c2sc3ccccc3c2n(Cc2cccc(C(F)(F)F)c2)c(=O)n1Cc1ccco1, which Potency is on record?
The Potency was inconclusive: 13 µM [inhibitor, partial curve].

For COc1ccc(-c2cc(C(F)(F)F)nc(SCC(=O)Nc3ccc4c(c3)OCO4)n2)cc1, which “activity change, negative = growth inhibition” value is on record?
Its value is inactive: -5.44%.

For COc1ccc(Cl)cc1NC(=O)COc1ccc(S(=O)(=O)N2CCOCC2)cc1C, which Potency is on record?
Its Potency is inconclusive: 9.2 µM [inhibitor, single point].

With CCc1ccc(N/C(N)=N/c2nc(CSc3ncccn3)cc(=O)[nH]2)cc1 as the molecule, how does the Potency read?
The Potency was active: 13 µM.

For CCc1cccc(C)c1N1C(=O)CC(C)(C)CC1=O, which “activity change, negative = growth inhibition” value is on record?
Its value is inactive: -21.6%.

For N=C1/C(=C\c2ccc(OC(=O)c3ccc(F)cc3)cc2)C(=O)N=C2SC(N3CCOCC3)=NN12, which “activity change, negative = growth inhibition” value is on record?
Its value is inactive: -19.9%.

With N#Cc1nc(COc2ccc(Cl)cc2Cl)oc1N1CCOCC1 as the molecule, how does the Potency read?
The Potency was inconclusive: 20 µM [inhibitor, partial curve, poor fit].

Which Potency does the source give for O=C(Cc1c(F)cccc1Cl)Nc1ccccn1 here?
Its Potency is inconclusive: 6.51 µM [inhibitor, partial curve, poor fit].

With O=S1(=O)CCN(Cc2ccccn2)CC1 as the molecule, how does the “activity change, negative = growth inhibition” value read?
Its value is inactive: 4.89%.

For CC1c2cccn2CCN1S(=O)(=O)c1ccccc1 (stereo not drawn), which “activity change, negative = growth inhibition” value is on record?
Its value is inactive: -3.97%.

For Cc1cccc(N(C(=O)c2snc(C(N)=O)c2N)C(C(=O)NCC2CCCO2)c2ccc3ncccc3c2)c1 (stereo not drawn), which Potency is on record?
The Potency was inconclusive: 23.1 µM [inhibitor, single point].

For Cc1ccc(OCC(=O)Nc2ccc(S(=O)(=O)Nc3ncccn3)cc2)c(C(C)(C)C)c1, which “activity change, negative = growth inhibition” value is on record?
Its value is inactive: -2.89%.

Which Potency does the source give for Cc1ccc(Cn2c(C(C)Nc3nc(-c4ccc(F)cc4)cs3)nc3cc(C(=O)NCCCO)ccc32)cc1 (stereo not drawn) here?
The Potency was inconclusive: 23.1 µM [inhibitor, single point].

With Cc1ccccc1-c1nc(-n2ccnc2)c2ccccc2n1 as the molecule, how does the Potency read?
The Potency was inconclusive: 29.1 µM [inhibitor, single point].

For COc1ccc(NC(=O)C2(C)Cc3c(-c4cccc(C(F)(F)F)c4)ccnc3O2)cc1OC (stereo not drawn), which Potency is on record?
Its Potency is active: 20.6 µM.

Which Potency does the source give for O=C(c1cccc(Oc2c(Cl)cccc2[N+](=O)[O-])c1)N1CCOCC1 here?
The Potency was inconclusive: 23.1 µM [inhibitor, single point].

For CC(C)(C)C(=O)CSc1nc2ccsc2c(=O)n1Cc1ccccc1F, which Potency is on record?
Its Potency is inconclusive: 29.1 µM [inhibitor, partial curve, poor fit].

For COC(=O)C[C@@H]1C[C@@H]2c3cc(NS(=O)(=O)c4ccc(F)cc4)ccc3O[C@@H]2[C@@H](CO)O1, which Potency is on record?
The Potency was inconclusive: 18.4 µM [inhibitor, single point].

Which “activity change, negative = growth inhibition” value does the source give for COc1cc(C(=O)NCCNc2nc3c(C)c(C)ccc3cc2C#N)cc(OC)c1OC here?
The value was inactive: -15.1%.

Which Potency does the source give for Cc1ccc(OCc2cc(C(=O)N3CCCC3)no2)cn1 here?
Its Potency is inconclusive: 13 µM [inhibitor, partial curve].

For CC1CCN(c2cc(N3CCOCC3)c([N+](=O)[O-])cc2F)CC1, which Potency is on record?
Its Potency is inconclusive: 14.6 µM [inhibitor, partial curve, poor fit].

With Cc1c(C)c(C)c(C(=O)C2CCN(c3ccc([N+](=O)[O-])cn3)CC2)c(C)c1C as the molecule, how does the Potency read?
The Potency was inconclusive: 23.1 µM [inhibitor, partial curve, poor fit].

With Cn1c(=O)c2c(SCC(=O)N3CCOCC3)nc(-c3ccccc3F)nc2n(C)c1=O as the molecule, how does the Potency read?
Its Potency is inconclusive: 29.1 µM [inhibitor, single point].

For COc1ccc(-n2c(SCC(=O)Nc3cc(C)on3)nc3c(c2=O)SC(C)C3)cc1 (stereo not drawn), which Potency is on record?
Its Potency is inconclusive: 7.31 µM [inhibitor, partial curve, poor fit].

For Cc1noc2ncnc(N3CCCCC3)c12, which Potency is on record?
Its Potency is inconclusive: 29.1 µM [inhibitor, single point].

For O=C(Nc1ccc(F)c(Cl)c1)C1Cc2c(-c3ccco3)ccnc2O1 (stereo not drawn), which Potency is on record?
Its Potency is active: 14.6 µM.

For O=C(Nc1nnc(S(=O)(=O)N2CCN(c3ccc(F)cc3)CC2)s1)c1ccccc1, which “activity change, negative = growth inhibition” value is on record?
The value was inactive: 2.54%.

Which Potency does the source give for COC(CNC(=O)c1cc(Sc2nnc(C)s2)nc2ccccc12)OC here?
Its Potency is inconclusive: 29.1 µM [inhibitor, single point].

For COc1ccc(-c2c(C#Cc3ccsc3)c3cc(-c4ccc5[nH]ccc5c4)ccc3n2C)cc1, which Potency is on record?
Its Potency is inconclusive: 13 µM [inhibitor, partial curve].

Which “activity change, negative = growth inhibition” value does the source give for O=C(CC1C(=O)NCCN1CC1CCCCC1)NCc1cccc(F)c1F (stereo not drawn) here?
The value was inactive: -2.26%.

For CN(C)c1ncc2nc(CCc3ccccc3)c(=O)n(C[C@H]3CCCO3)c2n1, which Potency is on record?
Its Potency is inconclusive: 18.4 µM [inhibitor, single point].

With CN(C)c1cc(-c2cccc(C(F)(F)F)c2)oc(=O)c1Cl as the molecule, how does the Potency read?
Its Potency is inconclusive: 20.6 µM [inhibitor, partial curve].

For COC(=O)[C@]12CCCCC=C1N(Cc1ccco1)C(=O)[C@H](CC(=O)NCCc1ccccc1OC)C2, which Potency is on record?
The Potency was inconclusive: 25.9 µM [inhibitor, single point].

For CCC(CC)C(=O)Nc1ccc(-c2cn3cccnc3n2)cc1, which Potency is on record?
Its Potency is “inactive”.

For CC(C)CC(C(=O)NC1CCCC1)N(Cc1cccs1)C(=O)c1snc(C(N)=O)c1N (stereo not drawn), which Potency is on record?
Its Potency is inconclusive: 18.4 µM [inhibitor, single point].

Which Potency does the source give for Cc1cccc(-c2nc3scc(CCNC(=O)c4ccc(Br)o4)n3n2)c1 here?
The Potency was inconclusive: 29.1 µM [inhibitor, single point].

With COc1ccccc1CN1[C@@H](CC(C)=O)c2cc(C(F)(F)F)ccc2S1(=O)=O as the molecule, how does the Potency read?
The Potency was inconclusive: 29.1 µM [inhibitor, single point].

For CCOC(=O)c1c(NC(=O)COC(=O)c2ncc(Cl)c(Cl)c2Cl)sc(C(=O)N(C)C)c1C, which “activity change, negative = growth inhibition” value is on record?
The value was inactive: -24.4%.

For Oc1ccc(C[C@H]2CNC(=S)N2CC2CCCN2C[C@H](Cc2ccc(O)cc2)N2C[C@H](Cc3ccccc3)N(CCc3ccccc3)C2=S)cc1 (stereo partly drawn), which Potency is on record?
The Potency was active: 20.6 µM.

With CN1C(=O)C(C)(C)c2cc(S(=O)(=O)N3CCCC3C(=O)NCc3ccc(F)cc3)ccc21 (stereo not drawn) as the molecule, how does the “activity change, negative = growth inhibition” value read?
The value was inactive: -19.7%.

For O=C(NCc1ccccc1)c1cc(C2CCCN(S(=O)(=O)c3cccc4cccnc34)C2)on1 (stereo not drawn), which Potency is on record?
The Potency was inconclusive: 20.6 µM [inhibitor, single point].

Which Potency does the source give for COC(=O)CSc1nc(C)c(C(=O)Nc2ccccc2C)c(-c2ccc(Cl)cc2)c1C#N here?
The Potency was inconclusive: 29.1 µM [inhibitor, single point].

With Cc1cc(C)cc(Nc2cc(C)nc3nncn23)c1 as the molecule, how does the Potency read?
Its Potency is inconclusive: 18.4 µM [inhibitor, single point].

For O=C(O)CCc1nn2c3ccccc3n(CCN3CCCCC3)c2nc1=O, which “activity change, negative = growth inhibition” value is on record?
Its value is inactive: -1.66%.

With CCCCCCCC/C=C\CCCCCCCC(=O)NCCO as the molecule, how does the Potency read?
Its Potency is inconclusive: 29.9 µM [inhibitor, partial curve, poor fit] and inconclusive: 25.9 µM [inhibitor, single point].

For COc1ccc(/C=C\c2onc(C)c2S(=O)(=O)N2CCC(C(=O)Nc3cccc(Cl)c3)CC2)cc1, which Potency is on record?
The Potency was active: 9.2 µM.

With CC(=O)NCCNc1nc(-c2ccc(N(C)C)cc2)nc2ccccc12 as the molecule, how does the Potency read?
The Potency was inconclusive: 23.1 µM [inhibitor, single point].

With CCOC(=O)C1CCN(C(=O)c2ccc3c(=O)n4nc(Nc5ccccc5OC)sc4nc3c2)CC1 as the molecule, how does the Potency read?
The Potency was active: 20.6 µM.

With O=c1c2ccccc2ncn1-c1ccc([N+](=O)[O-])cc1[N+](=O)[O-] as the molecule, how does the Potency read?
Its Potency is active: 18.4 µM.

Which Potency does the source give for Cc1csc(SCC(=O)NC23CC4CC(CC(C4)C2)C3)n1 here?
The Potency was inconclusive: 29.1 µM [inhibitor, single point].

Which Potency does the source give for OCCCNc1nc(-c2ccccc2)c2cc(Cl)ccc2n1 here?
Its Potency is inconclusive: 29.1 µM [inhibitor, single point].

With Cc1ccnc(NC(=O)c2ccc3c(c2)S(=O)(=O)c2ccccc2C3=O)c1 as the molecule, how does the Potency read?
The Potency was inconclusive: 20.6 µM [inhibitor, single point].

For O=C(O)c1ccc(NC(=O)c2cccc(N3C(=O)C4C5CCC(C5)C4C3=O)c2)cc1 (stereo not drawn), which “activity change, negative = growth inhibition” value is on record?
Its value is inactive: -2.14%.

For O=c1[nH]c2ccccc2nc1-c1ccc(Cl)cc1, which “activity change, negative = growth inhibition” value is on record?
The value was inactive: -13.6%.

With c1csc(-c2nc3ccccn3c2NC2CCCCC2)c1 as the molecule, how does the Potency read?
The Potency was inconclusive: 23.1 µM [inhibitor, single point].
